# From the supplement of paper PMC8728848
# This is one part of the list.
# B1: Gal 3C (Homo sapiens), P17931 (protein)
# chain: YGAPAGPLIVPYNLPLPGGVVPRMLITILGTVKPNANRIALDFQRGNDVAFHFNPRFNENNRRVIVCNTKLDNNWGREERQSVFPFESGKPFKIQVLVEPDHFKVAVNDAHLLQYNHRVKKLNEISKLGISGDIDLTSASYTMI
# Tests used:
# Test in all cases: glycan array binding signal (z-score within array); higher = stronger binding
# Conditions in all cases: glycan notation: IUPAC condensed, linker removed
# [1] = target: Fuc(a1-2)Gal
# Outline: (§1)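 Negative Z-scores can be read as non-binding. The Z-score is calculated within each array and then averaged across arrays of one protein sequence at different concentrations or buffers and across linkers. Arrays, 3228 in all, were curated from the Consortium for Functional Glycomics database and kept only where the protein sequence was available.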
# [2] = target: Fuc(a1-2)Gal(b1-3)GalNAc
# Outline: as §1
# [3] = target: Fuc(a1-2)Gal(b1-3)GalNAc(a1-3)[Fuc(a1-2)]Gal(b1-4)Glc
# Outline: as §1
# [4] = target: Fuc(a1-2)Gal(b1-3)GalNAc(a1-3)[Fuc(a1-2)]Gal(b1-4)GlcNAc
# Outline: as §1
# [5] = target: Fuc(a1-2)Gal(b1-3)GalNAc(b1-3)Gal
# Outline: as §1
# [6] = target: Fuc(a1-2)Gal(b1-3)GalNAc(b1-3)Gal(a1-4)Gal(b1-4)Glc
# Outline: as §1
# [7] = target: Fuc(a1-2)Gal(b1-3)GalNAc(b1-4)[Neu5Ac(a2-3)]Gal(b1-4)Glc
# Outline: as §1
# [8] = target: Fuc(a1-2)Gal(b1-3)GlcNAc
# Outline: as §1
# [9] = target: Fuc(a1-2)Gal(b1-3)GlcNAc(b1-2)Man(a1-3)[Fuc(a1-2)Gal(b1-3)GlcNAc(b1-2)Man(a1-6)]Man(b1-4)GlcNAc(b1-4)GlcNAc
# Outline: as §1
# [10] = target: Fuc(a1-2)Gal(b1-3)GlcNAc(b1-2)Man(a1-3)[Fuc(a1-2)Gal(b1-3)GlcNAc(b1-2)Man(a1-6)]Man(b1-4)GlcNAc(b1-4)[Fuc(a1-6)]GlcNAc
# Outline: as §1
# [11] = target: Fuc(a1-2)Gal(b1-3)GlcNAc(b1-3)Gal(b1-4)Glc
# Outline: as §1
# [12] = target: Fuc(a1-2)Gal(b1-3)GlcNAc(b1-3)GalNAc
# Outline: as §1
# [13] = target: Fuc(a1-2)Gal(b1-3)GlcNAc(b1-3)[Fuc(a1-2)Gal(b1-3)GlcNAc(b1-6)]GalNAc
# Outline: as §1
# [14] = target: Fuc(a1-2)Gal(b1-3)GlcNAc(b1-3)[Gal(b1-4)GlcNAc(b1-6)]Gal(b1-4)Glc
# Outline: as §1
# [15] = target: Fuc(a1-2)Gal(b1-3)GlcNAc(b1-3)[Neu5Ac(a2-6)Gal(b1-4)GlcNAc(b1-6)]Gal(b1-4)Glc
# Outline: as §1
# [16] = target: Fuc(a1-2)Gal(b1-3)GlcNAc6S
# Outline: as §1
# [17] = target: Fuc(a1-2)Gal(b1-3)[Fuc(a1-4)]GlcNAc
# Outline: as §1
# [18] = target: Fuc(a1-2)Gal(b1-3)[Fuc(a1-4)]GlcNAc(b1-2)Man(a1-3)[Fuc(a1-2)Gal(b1-3)[Fuc(a1-4)]GlcNAc(b1-2)Man(a1-3)]Man(b1-4)GlcNAc(b1-4)GlcNAc
# Outline: as §1
# [19] = target: Fuc(a1-2)Gal(b1-3)[Fuc(a1-4)]GlcNAc(b1-2)Man(a1-3)[Fuc(a1-2)Gal(b1-3)[Fuc(a1-4)]GlcNAc(b1-2)Man(a1-6)]Man(b1-4)GlcNAc(b1-4)[Fuc(a1-6)]GlcNAc(b1-4)[Fuc(a1-6)]GlcNAc
# Outline: as §1
# [20] = target: Fuc(a1-2)Gal(b1-3)[Fuc(a1-4)]GlcNAc(b1-3)[Fuc(a1-3)[Gal(b1-4)]GlcNAc(b1-6)]Gal(b1-4)Glc
# Outline: as §1
# [21] = target: Fuc(a1-2)Gal(b1-3)[Fuc(a1-4)]GlcNAc(b1-3)[Gal(b1-4)GlcNAc(b1-6)]Gal(b1-4)Glc
# Outline: as §1
# [22] = target: Fuc(a1-2)Gal(b1-4)Fuc(a1-3)]GlcNAc(b1-2)Man(a1-3)[Fuc(a1-2)Gal(b1-4)[Fuc(a1-3)]GlcNAc(b1-2)Man(a1-6)]Man(b1-4)GlcNAc(b1-4)GlcNAc
# Outline: as §1
# [23] = target: Fuc(a1-2)Gal(b1-4)Glc
# Outline: as §1
# [24] = target: Fuc(a1-2)Gal(b1-4)Glc6S
# Outline: as §1
# [25] = target: Fuc(a1-2)Gal(b1-4)GlcNAc
# Outline: as §1
# [26] = target: Fuc(a1-2)Gal(b1-4)GlcNAc(b1-2)Man
# Outline: as §1
# [27] = target: Fuc(a1-2)Gal(b1-4)GlcNAc(b1-2)Man(a1-3)[Fuc(a1-2)Gal(b1-4)GlcNAc(b1-2)Man(a1-6)]Man(b1-4)GlcNAc(b1-4)GlcNAc
# Outline: as §1
# [28] = target: Fuc(a1-2)Gal(b1-4)GlcNAc(b1-2)Man(a1-3)[Fuc(a1-2)Gal(b1-4)GlcNAc(b1-2)Man(a1-6)]Man(b1-4)GlcNAc(b1-4)[Fuc(a1-6)]GlcNAc
# Outline: as §1
# [29] = target: Fuc(a1-2)Gal(b1-4)GlcNAc(b1-2)[Fuc(a1-2)Gal(b1-4)GlcNAc(b1-4)]Man(a1-3)[Fuc(a1-2)Gal(b1-4)GlcNAc(b1-2)Man(a1-6)]Man(b1-4)GlcNAc(b1-4)GlcNAc
# Outline: as §1
# [30] = target: Fuc(a1-2)Gal(b1-4)GlcNAc(b1-3)Gal(b1-4)GlcNAc
# Outline: as §1
binder,measurement,setting,value
B1,glycan array binding signal (z-score),[1],-0.245
same,glycan array binding signal (z-score),[2],-0.289
same,glycan array binding signal (z-score),[3],-0.282
same,glycan array binding signal (z-score),[4],-0.314
same,glycan array binding signal (z-score),[5],-0.365
same,glycan array binding signal (z-score),[6],-0.216
same,glycan array binding signal (z-score),[7],-0.315
same,glycan array binding signal (z-score),[8],-0.253
same,glycan array binding signal (z-score),[9],-0.187
same,glycan array binding signal (z-score),[10],-0.203
same,glycan array binding signal (z-score),[11],-0.217
same,glycan array binding signal (z-score),[12],-0.272
same,glycan array binding signal (z-score),[13],-0.212
same,glycan array binding signal (z-score),[14],-0.284
same,glycan array binding signal (z-score),[15],-0.271
same,glycan array binding signal (z-score),[16],-0.191
same,glycan array binding signal (z-score),[17],-0.313
same,glycan array binding signal (z-score),[18],-0.23
same,glycan array binding signal (z-score),[19],-0.219
same,glycan array binding signal (z-score),[20],-0.367
same,glycan array binding signal (z-score),[21],-0.306
same,glycan array binding signal (z-score),[22],-0.162
same,glycan array binding signal (z-score),[23],-0.334
same,glycan array binding signal (z-score),[24],-0.193
same,glycan array binding signal (z-score),[25],-0.301
same,glycan array binding signal (z-score),[26],-0.286
same,glycan array binding signal (z-score),[27],-0.12
same,glycan array binding signal (z-score),[28],-0.313
same,glycan array binding signal (z-score),[29],-0.314
same,glycan array binding signal (z-score),[30],1.07
